These results are taken from the supplement of paper PMC4967469.

A lower IC50 marks a more sensitive line; fits outside the tested doses are given as limits. The AUC spans the tested range (256-fold, ending at the top dose) of the same fit; values near 1 show little effect. An inferred top dose is not printed in the source and was worked back from the curve model.

What is called IC50 is the concentration needed to halve the response being measured.

Compound in the experiment: N.N.[Cl][Pt][Cl] [Cisplatin]
Kind of experiment: Viability of human cancer cell lines after 72 h of drug (GDSC screen). The conditions noted are these: top dose inferred. How it is done: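 Human cancer cell lines in 384-well plates, medium with 10% serum, drug for 72 h over a 256-fold dose range (nine 2-fold or five 4-fold steps up to the top dose). Adherent lines were fixed and stained with the nucleic acid dye Syto60, suspension lines read with resazurin; signal relative to control wells, capped at 0 and 100%. One two-parameter sigmoid per drug and line, fitted in a mixed model over all curves with the slope shared within a line.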
“LU-65 (large cell lung carcinoma, suspension, top dose 10 µM)”: the AUC was 0.979 and the IC50 is greater than 10 µM.
For “LU-134-A (small cell lung carcinoma, suspension, top dose 10 µM)”, in that order: 0.913 and greater than 10 µM.
For “LU-135 (small cell lung carcinoma, suspension, top dose 10 µM)” the same measures were 0.915 and greater than 10 µM.
In the case of “LU-139 (small cell lung carcinoma, suspension, top dose 10 µM)”, the AUC was 0.942 and the IC50 was greater than 10 µM.
“LU-165 (small cell lung carcinoma, suspension, top dose 10 µM)”: the AUC was found to be 0.985 and the 50% inhibitory concentration (IC50) is greater than 10 µM.
For “LXF-289 (lung adenocarcinoma, adherent, top dose 10 µM)”, in that order: 0.898 and greater than 10 µM.
With “LoVo (large intestine, adherent, top dose 10 µM)”, the AUC stood at 0.936 and the concentration for half-maximal inhibition (IC50) was greater than 10 µM.
Regarding “M14 (melanoma, adherent, top dose 10 µM)”, the AUC was determined as 0.962 and the IC50 is greater than 10 µM.
In the case of “M059J (glioma, adherent, top dose 10 µM)”, the AUC worked out at 0.861 and the IC50 is 9.71 µM.
For “MC116 (B-cell lymphoma, suspension, top dose 10 µM)”, in that order: 0.999 and greater than 10 µM.
For “MC-CAR (haematopoietic neoplasm, suspension, top dose 10 µM)” the same measures were 0.935 and greater than 10 µM.
For “MC-IXC (neuroblastoma, adherent, top dose 10 µM)”, in that order: 0.685 and 1.76 µM.
For MCF7 (breast, adherent, top dose 10 µM), the AUC is 0.93 and the IC50 was greater than 10 µM.
For “MDA-MB-175-VII (breast, adherent, top dose 10 µM)” the same measures were 0.937 and greater than 10 µM.
For “MDA-MB-330 (breast, adherent, top dose 10 µM)”, in that order: 0.983 and greater than 10 µM.
As to “MDA-MB-361 (breast, adherent, top dose 10 µM)”, the AUC turned out to be 0.91 and the IC50 is greater than 10 µM.
Consider “MDA-MB-415 (breast, adherent, top dose 10 µM)”, for which the AUC was found to be 0.941 and the IC50 was greater than 10 µM.
For “MDA-MB-436 (breast, adherent, top dose 10 µM)” the same measures were 0.766 and 4.63 µM.
For “MDA-MB-453 (breast, adherent, top dose 10 µM)”, in that order: 0.98 and greater than 10 µM.
For “MDA-MB-468 (breast, adherent, top dose 10 µM)”, in that order: 0.835 and 6.25 µM.
Turning to “MDST8 (large intestine, adherent, top dose 10 µM)”, the AUC amounted to 0.894 and the IC50 was greater than 10 µM.
“ME-1 (acute myeloid leukaemia, suspension, top dose 10 µM)”: the AUC was determined as 0.969 and the IC50 was greater than 10 µM.
Take “MEG-01 (chronic myeloid leukaemia, suspension, top dose 10 µM)”: the AUC worked out at 0.963 and the IC50 is greater than 10 µM.
On to “MEL-HO (melanoma, adherent, top dose 10 µM)”, for which the AUC came out at 0.85 and the IC50 amounted to 7.74 µM.
On to “MEL-JUSO (melanoma, adherent, top dose 10 µM)”, for which the AUC turned out to be 0.879 and the IC50 was greater than 10 µM.
Take “MES-SA (uterus, adherent, top dose 10 µM)”: the AUC was 0.872 and the IC50 was 7.16 µM.
For “MFE-280 (endometrium, adherent, top dose 10 µM)”, in that order: 0.981 and greater than 10 µM.
For “MFE-296 (endometrium, adherent, top dose 10 µM)”, the AUC was 0.911 and the IC50 is greater than 10 µM.
Turning to “MFH-ino (soft tissue, adherent, top dose 10 µM)”, the AUC is 0.784 and the IC50 was found to be 5.06 µM.
“MFM-223 (breast, adherent, top dose 10 µM)”: the AUC came out at 0.949 and the IC50 is greater than 10 µM.
As to “MG-63 (osteosarcoma, adherent, top dose 10 µM)”, the AUC was 0.883 and the IC50 was greater than 10 µM.
Turning to “MHH-CALL-2 (B-cell leukaemia, suspension, top dose 10 µM)”, the AUC worked out at 0.931 and the IC50 came to 8.87 µM.
For “MHH-ES-1 (Ewing sarcoma, adherent, top dose 10 µM)”, in that order: 0.702 and 2.3 µM.
For “MHH-NB-11 (neuroblastoma, adherent, top dose 10 µM)”, the AUC is 0.809 and the IC50 stood at 5.85 µM.
For “MHH-PREB-1 (B-cell leukaemia, suspension, top dose 10 µM)” the same measures were 0.972 and greater than 10 µM.
For “MIA-PaCa-2 (pancreas, adherent, top dose 10 µM)”, in that order: 0.631 and 1.49 µM.
For “MKN7 (stomach, adherent, top dose 10 µM)” the same measures were 0.913 and greater than 10 µM.
With “MKN28 (stomach, adherent, top dose 10 µM)”, the AUC was found to be 0.931 and the IC50 is greater than 10 µM.
Regarding “ML-2 (acute myeloid leukaemia, suspension, top dose 10 µM)”, the AUC was 0.903 and the IC50 is greater than 10 µM.
For “MLMA (hairy cell leukaemia, semi-adherent, top dose 10 µM)” the same measures were 0.868 and 9.29 µM.
For “MM1S (myeloma, suspension, top dose 10 µM)”, in that order: 0.902 and greater than 10 µM.
Consider “MMAC-SF (melanoma, adherent, top dose 10 µM)”, for which the AUC amounted to 0.987 and the IC50 is greater than 10 µM.
Regarding “MN-60 (B-cell leukaemia, suspension, top dose 10 µM)”, the AUC was determined as 0.987 and the IC50 was greater than 10 µM.
For “MOG-G-CCM (glioma, adherent, top dose 10 µM)”, in that order: 0.797 and 5.67 µM.
Turning to “MOG-G-UVW (glioma, adherent, top dose 10 µM)”, the AUC came out at 0.676 and the IC50 was 1.91 µM.
For “MOLM-13 (acute myeloid leukaemia, suspension, top dose 6 µM)”, in that order: 0.87 and 4.98 µM.
For “MOLM-16 (acute myeloid leukaemia, suspension, top dose 6 µM)” the same measures were 0.909 and greater than 6 µM.
Regarding “MOLP-8 (myeloma, suspension, top dose 6 µM)”, the AUC came to 0.915 and the IC50 was greater than 6 µM.
For “MOLT-4 (lymphoblastic leukaemia, suspension, top dose 6 µM)” the same measures were 0.828 and 2.81 µM.
